This is one part of the list.
What was measured:
Assay in all cases: glycan array binding signal (z-score within array); higher = stronger binding
Settings in all cases: glycan notation: IUPAC condensed, linker removed
[1] = target: Gal(a1-3)Gal(b1-4)GlcNAc(b1-2)Man
Summary of the method: (§1)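 The Consortium for Functional Glycomics database supplied 3228 glycan arrays, of which those lacking an available protein sequence were dropped. The binding signal, a within-array Z-score, was averaged across arrays of the same protein sequence and across linkers. Negative scores can be read as non-binding.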

[2] = target: Gal(a1-3)Gal(b1-4)GlcNAc(b1-2)Man(a1-3)[Gal(a1-3)Gal(b1-4)GlcNAc(b1-2)Man(a1-6)]Man(b1-4)GlcNAc(b1-4)GlcNAc
Summary of the method: as §1

[3] = target: Gal(a1-3)Gal(b1-4)GlcNAc(b1-3)GalNAc
Summary of the method: as §1

[4] = target: Gal(a1-3)Gal(b1-4)GlcNAc(b1-6)GalNAc
Summary of the method: as §1

[5] = target: Gal(a1-3)Gal(b1-4)[Fuc(a1-3)]GlcNAc
Summary of the method: as §1

[6] = target: Gal(a1-3)Gal(b1-4)[Fuc(a1-3)]GlcNAc(b1-2)Man(a1-3)[Gal(a1-3)Gal(b1-4)[Fuc(a1-3)]GlcNAc(b1-2)Man(a1-6)]Man(b1-4)GlcNAc(b1-4)GlcNAc
Summary of the method: as §1

Gal(a1-3)GalNAc = target: Gal(a1-3)GalNAc
Summary of the method: as §1

[7] = target: Gal(a1-3)[Gal(a1-4)]Gal(b1-4)GlcNAc
Summary of the method: as §1

[8] = target: Gal(a1-4)Gal(b1-3)GlcNAc(b1-2)Man(a1-3)[Gal(a1-4)Gal(b1-3)GlcNAc(b1-2)Man(a1-6)]Man(b1-4)GlcNAc(b1-4)GlcNAc
Summary of the method: as §1

Gal(a1-4)Gal(b1-4)Glc = target: Gal(a1-4)Gal(b1-4)Glc
Summary of the method: as §1

Gal(a1-4)Gal(b1-4)GlcNAc = target: Gal(a1-4)Gal(b1-4)GlcNAc
Summary of the method: as §1

[9] = target: Gal(a1-4)Gal(b1-4)GlcNAc(b1-2)Man(a1-3)[Gal(a1-4)Gal(b1-4)GlcNAc(b1-2)Man(a1-6)]Man(b1-4)GlcNAc(b1-4)GlcNAc
Summary of the method: as §1

[10] = target: Gal(a1-4)Gal(b1-4)GlcNAc(b1-3)Gal(b1-4)Glc
Summary of the method: as §1

Gal(a1-4)GlcNAc = target: Gal(a1-4)GlcNAc
Summary of the method: as §1

Gal(a1-6)Glc = target: Gal(a1-6)Glc
Summary of the method: as §1

Gal(b1-2)Gal = target: Gal(b1-2)Gal
Summary of the method: as §1

Gal(b1-3)Gal = target: Gal(b1-3)Gal
Summary of the method: as §1

Gal(b1-3)Gal(b1-4)GlcNAc = target: Gal(b1-3)Gal(b1-4)GlcNAc
Summary of the method: as §1

Gal(b1-3)GalNAc = target: Gal(b1-3)GalNAc
Summary of the method: as §1

[11] = target: Gal(b1-3)GalNAc(a1-3)[Fuc(a1-2)]Gal(b1-4)Glc
Summary of the method: as §1

[12] = target: Gal(b1-3)GalNAc(a1-3)[Fuc(a1-2)]Gal(b1-4)GlcNAc
Summary of the method: as §1

Gal(b1-3)GalNAc(b1-3)Gal = target: Gal(b1-3)GalNAc(b1-3)Gal
Summary of the method: as §1

[13] = target: Gal(b1-3)GalNAc(b1-3)Gal(a1-4)Gal(b1-4)Glc
Summary of the method: as §1

[14] = target: Gal(b1-3)GalNAc(b1-4)Gal(b1-4)Glc
Summary of the method: as §1

[15] = target: Gal(b1-3)GalNAc(b1-4)[Neu5Ac(a2-3)]Gal(b1-4)Glc
Summary of the method: as §1

Gal(b1-3)GlcNAc = target: Gal(b1-3)GlcNAc
Summary of the method: as §1

[16] = target: Gal(b1-3)GlcNAc(a1-3)Gal(b1-4)GlcNAc
Summary of the method: as §1

[17] = target: Gal(b1-3)GlcNAc(a1-6)Gal(b1-4)GlcNAc
Summary of the method: as §1

Gal(b1-3)GlcNAc(b1-2)Man = target: Gal(b1-3)GlcNAc(b1-2)Man
Summary of the method: as §1

[18] = target: Gal(b1-3)GlcNAc(b1-2)Man(a1-3)[Gal(b1-3)GlcNAc(b1-2)Man(a1-6)]Man(b1-4)GlcNAc(b1-4)GlcNAc
Summary of the method: as §1

[19] = target: Gal(b1-3)GlcNAc(b1-2)Man(a1-3)[Gal(b1-3)GlcNAc(b1-2)Man(a1-6)]Man(b1-4)GlcNAc(b1-4)[Fuc(a1-6)]GlcNAc
Summary of the method: as §1

[20] = target: Gal(b1-3)GlcNAc(b1-2)Man(a1-3)[GlcNAc(b1-4)][Gal(b1-3)GlcNAc(b1-2)Man(a1-6)]Man(b1-4)GlcNAc(b1-4)GlcNAc
Summary of the method: as §1

[21] = target: Gal(b1-3)GlcNAc(b1-2)[Gal(b1-3)GlcNAc(b1-6)]Man(a1-6)[Gal(b1-3)GlcNAc(b1-2)Man(a1-3)]Man(b1-4)GlcNAc(b1-4)GlcNAc
Summary of the method: as §1

[22] = target: Gal(b1-3)GlcNAc(b1-3)Gal(b1-3)GlcNAc
Summary of the method: as §1

[23] = target: Gal(b1-3)GlcNAc(b1-3)Gal(b1-4)Glc
Summary of the method: as §1

[24] = target: Gal(b1-3)GlcNAc(b1-3)Gal(b1-4)GlcNAc
Summary of the method: as §1

[25] = target: Gal(b1-3)GlcNAc(b1-3)Gal(b1-4)GlcNAc(b1-2)Man(a1-3)[Gal(b1-3)GlcNAc(b1-3)Gal(b1-4)GlcNAc(b1-2)Man(a1-6)]Man(b1-4)GlcNAc(b1-4)GlcNAc
Summary of the method: as §1

B1: Clec49 (Caenorhabditis elegans) (protein)
chain: MTRLTLLLFGLLGAATAQTCNTGGIYNEQFNRCYQYFTAPAQFSFAEQQCNLLGGHLASVQNGQENALLQSNAANSFKRSNYSDYWIGATDLETSGTWKWTDPSVTFDYSNWQLGEPQSGSDCAIQDKGDGTWSAIGCTSYRPYVCVTPVIMTATCPPITTPIPTTCPTPAPCPIKQCVPSCDQGWTYFSPTDFCYRVYHGEKFNDAEASCVLLGGHLASIHSLTENTFVNNIASCGIKEGKYEHLAWIGMRKVGQDWVWTDGTPSDYFNWAPKQPDNPKKELCVQTAPDLSHDKWYENWNNLECNEVMRAYICKKASIHN
glycan array binding signal (z-score) [1]: 0.895
glycan array binding signal (z-score) [2]: 0.541
glycan array binding signal (z-score) [3]: -0.407
glycan array binding signal (z-score) [4]: -0.422
glycan array binding signal (z-score) [5]: 0.246
glycan array binding signal (z-score) [6]: 2.45
glycan array binding signal (z-score) (Gal(a1-3)GalNAc): -0.457
glycan array binding signal (z-score) [7]: -0.331
glycan array binding signal (z-score) [8]: -0.77
glycan array binding signal (z-score) (Gal(a1-4)Gal(b1-4)Glc): -0.394
glycan array binding signal (z-score) (Gal(a1-4)Gal(b1-4)GlcNAc): -0.033
glycan array binding signal (z-score) [9]: 0.749
glycan array binding signal (z-score) [10]: -0.229
glycan array binding signal (z-score) (Gal(a1-4)GlcNAc): 0.052
glycan array binding signal (z-score) (Gal(a1-6)Glc): -0.221
glycan array binding signal (z-score) (Gal(b1-2)Gal): 0.354
glycan array binding signal (z-score) (Gal(b1-3)Gal): 0.777
glycan array binding signal (z-score) (Gal(b1-3)Gal(b1-4)GlcNAc): 0.247
glycan array binding signal (z-score) (Gal(b1-3)GalNAc): 0.198
glycan array binding signal (z-score) [11]: -0.369
glycan array binding signal (z-score) [12]: -0.934
glycan array binding signal (z-score) (Gal(b1-3)GalNAc(b1-3)Gal): 0.42
glycan array binding signal (z-score) [13]: 0.34
glycan array binding signal (z-score) [14]: -0.089
glycan array binding signal (z-score) [15]: -0.776
glycan array binding signal (z-score) (Gal(b1-3)GlcNAc): -0.244
glycan array binding signal (z-score) [16]: -0.676
glycan array binding signal (z-score) [17]: -0.5
glycan array binding signal (z-score) (Gal(b1-3)GlcNAc(b1-2)Man): 1.72
glycan array binding signal (z-score) [18]: 1.15
glycan array binding signal (z-score) [19]: 0.219
glycan array binding signal (z-score) [20]: 3.15
glycan array binding signal (z-score) [21]: 0.209
glycan array binding signal (z-score) [22]: -0.234
glycan array binding signal (z-score) [23]: -0.561
glycan array binding signal (z-score) [24]: -0.381
glycan array binding signal (z-score) [25]: -0.992

— the supplement of paper PMC8728848
